Measurements from the supplement of paper PMC12217912.
This is one part of the list. Sequences were assembled here from the parent chain. Inactive controls read about 0.05.

B1: TEV protease; numbered along this chain (parent)
chain: MGESLFKGPRDYNPISSSICHLTNESDGHTTSLYGIGFGPFIITNKHLFRRNNGTLVVQSLHGVFKVKDTTTLQQHLVDGRDMIIIRMPKDFPPFPQKLKFREPQREERICLVTTNFQTKSMSSMVSDTSCTFPSGDGIFWKHWIQTKDGQCGSPLVSTRDGFIVGIHSASNFTNTNNYFTSVPKNFMELLTNQEAQQWVSGWRLNADSVLWGGHKVFMVKPEEPFQPVKEATQL

Variants of: B1
Experiment: raw area under fraction-flipped curve 0-4 h after induction (AUC4h, not background-subtracted), DNA-recorder readout of cleavage of the substrate (dimensionless); higher = more cleavage of the substrate by the protease variant
Details: temperature: 34 °C; time window: 0-4 h after rhamnose induction
Protocol: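 In vivo DNA recorder in E. coli TOP10(DE3) ΔrhaA at 34 °C. Each TEVp single-site mutant (parent TEVp 0) is paired with a single-site variant of the 7-mer TEVs (canonical ENLYFQ|S). The substrate sits between flexible linkers in a Bxb1-sfGFP-TEVs-SsrA fusion, so cleavage stabilises Bxb1 and speeds flipping of a recombination array, read by NGS. The value is the raw area under the fraction-flipped curve over 0-4 h after rhamnose induction (AUC4h), with ≥20 reads per time point. It is not background-subtracted; inactive controls average about 0.047.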
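Further: Bxb1 expression induced with 0.2% (w/v) L-rhamnose at OD600 near 0.5, cultures sampled hourly, flipped fraction per protease–substrate barcode pair counted by paired-end Illumina sequencing.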

| Variant | area with substrate EALYFQS | area with substrate EELYFQS | area with substrate EHLYFQS | area with substrate EQLYFQS | area with substrate ERLYFQS | area with substrate ESLYFQS | area with substrate EVLYFQS | area with substrate ECLYFQS | area with substrate EGLYFQS | area with substrate EILYFQS | area with substrate ELLYFQS | area with substrate EMLYFQS | area with substrate EWLYFQS | area with substrate EYLYFQS | area with substrate EKLYFQS | area with substrate ETLYFQS | area with substrate EDLYFQS | area with substrate EPLYFQS | area with substrate EFLYFQS |
| --- | --- | --- | --- | --- | --- | --- | --- | --- | --- | --- | --- | --- | --- | --- | --- | --- | --- | --- | --- |
| E107L | 0.125 | 0.0999 | 0.0887 | 0.109 | 0.066 | 0.0906 | 0.0839 | – | – | – | – | – | – | – | – | – | – | – | – |
| T70R | 0.0664 | – | – | – | 0.0802 | 0.0566 | – | 0.0815 | 0.0603 | 0.0552 | 0.051 | 0.0835 | 0.0723 | 0.0626 | – | – | – | – | – |
| Q105L | 0.111 | – | 0.184 | 0.06 | 0.104 | – | – | 0.109 | – | – | 0.0489 | 0.118 | 0.102 | – | 0.0953 | 0.129 | – | – | – |
| Q105I | 0.122 | – | – | 0.101 | – | 0.104 | 0.108 | – | – | 0.0802 | 0.0743 | 0.11 | – | – | – | – | – | – | – |
| K90H | 0.101 | – | – | – | 0.0995 | 0.0898 | 0.0912 | 0.11 | 0.0767 | 0.0945 | 0.0856 | 0.113 | – | – | 0.0799 | 0.081 | 0.137 | 0.128 | – |
| K90V | 0.11 | – | – | 0.11 | – | 0.0945 | 0.0893 | 0.107 | 0.0954 | – | – | – | – | – | 0.112 | – | – | 0.0955 | 0.109 |
| K90G | 0.133 | – | – | – | – | 0.111 | – | – | 0.105 | 0.107 | 0.0867 | – | – | – | 0.108 | – | 0.104 | – | 0.0989 |
| R102M | 0.0792 | 0.0652 | 0.0551 | 0.0574 | 0.0601 | 0.0676 | 0.0563 | 0.071 | 0.0541 | – | – | 0.0569 | 0.0456 | 0.0458 | 0.0536 | 0.0548 | – | 0.0354 | 0.0539 |
| C111H | 0.0799 | 0.114 | – | 0.111 | – | 0.12 | 0.11 | – | – | 0.0983 | – | 0.144 | 0.0888 | 0.104 | – | 0.106 | – | – | – |
| C111D | 0.0735 | 0.0688 | 0.0591 | – | – | 0.063 | 0.0608 | 0.0584 | 0.0693 | 0.0542 | – | 0.063 | 0.0548 | 0.0851 | 0.0522 | 0.0682 | – | – | 0.0785 |
| K100G | 0.115 | – | – | 0.104 | – | 0.0944 | 0.0989 | – | 0.0984 | 0.0781 | 0.0857 | – | 0.0964 | 0.12 | 0.0598 | 0.083 | 0.109 | 0.103 | – |
| K100Y | 0.0992 | – | – | 0.144 | 0.0975 | 0.0978 | – | 0.107 | – | 0.0922 | – | 0.151 | – | – | 0.0562 | – | – | – | 0.135 |
| P89Y | 0.0899 | – | 0.0846 | 0.0878 | 0.0678 | 0.0644 | 0.0754 | 0.0759 | – | – | 0.0595 | – | – | – | 0.0583 | – | – | – | – |
| P89L | 0.0669 | – | 0.0736 | – | 0.0715 | 0.0785 | – | – | – | 0.065 | – | – | – | – | 0.0585 | 0.0655 | – | – | 0.0811 |
| P94W | 0.118 | 0.119 | – | 0.116 | 0.086 | 0.14 | 0.0994 | – | – | 0.107 | – | 0.0506 | – | 0.0958 | 0.118 | 0.0897 | 0.118 | 0.112 | – |
| P94A | 0.13 | – | – | 0.113 | – | 0.102 | – | 0.107 | – | – | 0.102 | – | – | 0.103 | – | – | – | – | – |
| P94T | 0.126 | – | – | 0.127 | – | 0.106 | 0.0971 | 0.111 | – | 0.115 | 0.122 | – | 0.11 | – | 0.118 | – | – | – | – |
